# Data taken from article PMC12820563.
# This is one part of the list. The list includes weakly bound sequences.
# Molecular target: T1, MBP-FoxP3dN (UniProt Q99JB6)
# T1 sequence: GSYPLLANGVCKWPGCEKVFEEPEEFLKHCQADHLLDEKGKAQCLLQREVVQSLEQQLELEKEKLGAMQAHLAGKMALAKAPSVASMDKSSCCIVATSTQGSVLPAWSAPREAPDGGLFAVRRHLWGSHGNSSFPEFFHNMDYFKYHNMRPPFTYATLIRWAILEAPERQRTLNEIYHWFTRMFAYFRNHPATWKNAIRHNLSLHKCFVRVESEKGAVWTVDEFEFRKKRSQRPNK
# Experiment: PD-seq (MBP pull-down with sequencing)
# Settings: 20 mM Tris-HCl pH 7.5, 100 mM NaCl, 1.5 mM MgCl2, 0.4 uM protein, 0.1 uM dsDNA library, 30 min, room temperature, amylose pull-down; high values mean tight binding; double strand, one strand shown
row,Sequence,binding signal (RPM ratio (pull-down/input))
1,GATGATTGTTCTCCCAGCTGATGAATTAATTCCCTCGAGTAAACAAATTTTCCTAATCTTTCTGTTCAAGCGCCATCTAC,0.337
2,GATGATTGTTCTCCCAGCTGATGAATTGCCATGATCGAGTAAACAAATTTTCCTAATCTTTCTGTTCAAGCGCCATCTAC,0.713
3,GATGATTGTTCTCCCAGCTGATGAATTGGCGCCGTCGAGTAAACAAATTTTCCTAATCTTTCTGTTCAAGCGCCATCTAC,0.601
4,GATGATTGTTCTCCCAGCTGATGAATTAGCCCATTCGAGTAAACAAATTTTCCTAATCTTTCTGTTCAAGCGCCATCTAC,0.4
5,GATGATTGTTCTCCCAGCTGATGAATTAAATTGATCGAGTAAACAAATTTTCCTAATCTTTCTGTTCAAGCGCCATCTAC,0.875
6,GATGATTGTTCTCCCAGCTGATGAATTACGTAAGTCGAGTAAACAAATTTTCCTAATCTTTCTGTTCAAGCGCCATCTAC,0.424
7,GATGATTGTTCTCCCAGCTGATGAATTTGCTAAGTCGAGTAAACAAATTTTCCTAATCTTTCTGTTCAAGCGCCATCTAC,0.407
8,GATGATTGTTCTCCCAGCTGATGAATTTTGAGTATCGAGTAAACAAATTTTCCTAATCTTTCTGTTCAAGCGCCATCTAC,1.01
9,GATGATTGTTCTCCCAGCTGATGAATTAGTGGGCTCGAGTAAACAAATTTTCCTAATCTTTCTGTTCAAGCGCCATCTAC,0.789
10,GATGATTGTTCTCCCAGCTGATGAATTGCACTCATCGAGTAAACAAATTTTCCTAATCTTTCTGTTCAAGCGCCATCTAC,1.32
11,GATGATTGTTCTCCCAGCTGATGAATTGTCTTCTTCGAGTAAACAAATTTTCCTAATCTTTCTGTTCAAGCGCCATCTAC,0.478
12,GATGATTGTTCTCCCAGCTGATGAATTTAGCTCATCGAGTAAACAAATTTTCCTAATCTTTCTGTTCAAGCGCCATCTAC,0.579
13,GATGATTGTTCTCCCAGCTGATGAATTTGCTTGTTCGAGTAAACAAATTTTCCTAATCTTTCTGTTCAAGCGCCATCTAC,6.99
14,GATGATTGTTCTCCCAGCTGATGAATTTCTGACCTCGAGTAAACAAATTTTCCTAATCTTTCTGTTCAAGCGCCATCTAC,0.212
15,GATGATTGTTCTCCCAGCTGATGAATTCTGGTAATCGAGTAAACAAATTTTCCTAATCTTTCTGTTCAAGCGCCATCTAC,0.504
16,GATGATTGTTCTCCCAGCTGATGAATTAGGTGGGTCGAGTAAACAAATTTTCCTAATCTTTCTGTTCAAGCGCCATCTAC,0.579

row,Sequence,binding signal (RPM ratio (pull-down/input))
1,GATGATTGTTCTCCCAGCTGATGAATTGGCTGGATCGAGTAAACAAATTTTCCTAATCTTTCTGTTCAAGCGCCATCTAC,0.228
2,GATGATTGTTCTCCCAGCTGATGAATTCGGGATATCGAGTAAACAAATTTTCCTAATCTTTCTGTTCAAGCGCCATCTAC,0.379
3,GATGATTGTTCTCCCAGCTGATGAATTGGAATACTCGAGTAAACAAATTTTCCTAATCTTTCTGTTCAAGCGCCATCTAC,0.453
4,GATGATTGTTCTCCCAGCTGATGAATTTATATTCTCGAGTAAACAAATTTTCCTAATCTTTCTGTTCAAGCGCCATCTAC,2.1
5,GATGATTGTTCTCCCAGCTGATGAATTGAGATCCTCGAGTAAACAAATTTTCCTAATCTTTCTGTTCAAGCGCCATCTAC,0.341
6,GATGATTGTTCTCCCAGCTGATGAATTGAAACGGTCGAGTAAACAAATTTTCCTAATCTTTCTGTTCAAGCGCCATCTAC,0.272
7,GATGATTGTTCTCCCAGCTGATGAATTACGCTTGTCGAGTAAACAAATTTTCCTAATCTTTCTGTTCAAGCGCCATCTAC,3.3
8,GATGATTGTTCTCCCAGCTGATGAATTGCTCAGATCGAGTAAACAAATTTTCCTAATCTTTCTGTTCAAGCGCCATCTAC,0.345
9,GATGATTGTTCTCCCAGCTGATGAATTAACTCGATCGAGTAAACAAATTTTCCTAATCTTTCTGTTCAAGCGCCATCTAC,0.241
10,GATGATTGTTCTCCCAGCTGATGAATTATAATCCTCGAGTAAACAAATTTTCCTAATCTTTCTGTTCAAGCGCCATCTAC,0.409
11,GATGATTGTTCTCCCAGCTGATGAATTCGGACTGTCGAGTAAACAAATTTTCCTAATCTTTCTGTTCAAGCGCCATCTAC,0.552
12,GATGATTGTTCTCCCAGCTGATGAATTCAGACCGTCGAGTAAACAAATTTTCCTAATCTTTCTGTTCAAGCGCCATCTAC,0.328
13,GATGATTGTTCTCCCAGCTGATGAATTCACTGAGTCGAGTAAACAAATTTTCCTAATCTTTCTGTTCAAGCGCCATCTAC,0.219
14,GATGATTGTTCTCCCAGCTGATGAATTTGGAGAGTCGAGTAAACAAATTTTCCTAATCTTTCTGTTCAAGCGCCATCTAC,0.307
15,GATGATTGTTCTCCCAGCTGATGAATTCCGTCACTCGAGTAAACAAATTTTCCTAATCTTTCTGTTCAAGCGCCATCTAC,1.42
16,GATGATTGTTCTCCCAGCTGATGAATTAACCCACTCGAGTAAACAAATTTTCCTAATCTTTCTGTTCAAGCGCCATCTAC,0.342
